Read counts are not given, so values of variants with three or more changes are uncertain.
B1: LINE1-mini (parent)
chain: GGCAGAGCUCAACACAGCGUGGCAAAGUGGCUGUGGCUAGACUGCC

Variants of: B1
Test: self-cleavage, relative activity (ratio to wild type); higher = more cleavage; in vitro, sequencing; the parent is a self-cleaving ribozyme

Variant	self-cleavage
G2U U9A A41C	0.04
G2U U9A C18A	0.1
G2U U9A G17C U34A	0.04
G2U U9A G17U A39G	0.02
G2U U9A G29C	0
G2U U9A G33A A39C	0
G2U U9A U28A	0.02
G2U U9A U34G	0.03
G2U U9C A26C G29U	0.01
G2U U9C C13A G36A C42U	0.02
G2U U9C U20C A39U	0.03
G2U U9G A24U G29U	0.03
G2U U9G A26G	0.02
G2U U9G C23U	0.05
G2U U9G G22U	0
G2U U9G U20C C31U	0.02
G2U U20A G21A	0.07
G2U U20A G27A	0.06
G2U U20A G40C	0
G2U U20A U32C G36U	0.02
G2U U20C A41C	0.02
G2U U20C G30A	0.11
G2U U20G G21C U32G A39C	0
G2U U28A G36A G40A	0

Variant	self-cleavage
G2U U28G A41U	0.03
G2U U28G C42U	0.01
G2U U32A A41C	0.06
G2U U32A C37A	0.02
G2U U32C G40U	0.16
G2U U32C U38A U43C	0.02
G2U U32G C45U	0.01
G2U U32G G40A C42U	0.04
G2U U34G C46A	0.03
G2U U43A C46A	0.14
C3A A4C C31U	0.02
C3A A4C G7U A14G A41U	0.53
C3A A4C G35U	0.13
C3A A4G A11U G29C U32G G36U C37U C42A	0
C3A A4G A12C G30U U32A	0.03
C3A A4G C8U	0.23
C3A A4G C10G U28A	0.03
C3A A4G C13G A14G G35U U38G	0.03
C3A A4G G19A U34G	0.02
C3A A4G G29C	0.17
C3A A4U A6G U9A G40A G44U	0.71
C3A A4U A11U	0.03
C3A A4U C10A G17A A24U G29U G30A U43A	0.04
C3A A4U C10U G19U A26C G40C	0.05

Variant	self-cleavage
C3A A4U G5A C8G A12U G22A G29C C37U	0.01
C3A A4U G17U G19A	0.52
C3A A4U G27A A39C	1.35
C3A A4U G33U	0.13
C3A A4U U9G C15U C42U C46U	0.07
C3A A6C A14U C37G	1.01
C3A A6C A16C A41C	0.11
C3A A6C C18G G35C A41U	0.2
C3A A6C C37U U43C	0.29
C3A A6C G36A A41U	0.19
C3A A6G C10U	0.04
C3A A6G G7C C42U	0.09
C3A A6G U9C C18U C23A U34A	0.01
C3A A6U A11G A14U A39G	0.04
C3A A6U C8U A12C C45A C46U	0.02
C3A A6U C10G A12C C31A U34G A39C U43C	0
C3A A6U G7U A24U	0.8
C3A A6U G21C	0.46
C3A A6U U28C	0.15
C3A A6U U28G G29C G36A A39U	0.02
C3A A11C G21U C42G	0.02
C3A A11C G22C C42G	0.03
C3A A11C G27U	0.03
C3A A11G C23U G33A	0.04

Variant	self-cleavage
C3A A11G U20G G33U	0.02
C3A A11G U34G C46A	0.06
C3A A11U A14G G29A U43A	0.01
C3A A11U C13G A14U U34G	0.01
C3A A11U C13G G21A U34C	0.03
C3A A11U C18G G21C C23A A41U	0.02
C3A A11U C42G	0
C3A A11U G19C G21U G30U A39C	0.01
C3A A11U G19U G35U	0.01
C3A A12C G17C A25U	0.06
C3A A12C G30U C45A	0.04
C3A A12C G36U U38A C42U G44U	0.01
C3A A12G A16C A39U	0.01
C3A A12G A16G G35U	0.05
C3A A12G A24C A26C U32G	0.23
C3A A12G C31G	0.02
C3A A12U A14C	0.01
C3A A12U A14C U20C C42G	0.02
C3A A12U C42G	0.03
C3A A14C C15U A16U C18G	0.3
C3A A14C G19A G27C U32A C46G	0.04
C3A A14C G19C C45A	0.05
C3A A14U C15U G17U C18G	0.18
C3A A16C C31G A41C C42U C45A	0.04

Variant	self-cleavage
C3A A16C G29U	0.14
C3A A16C G36U	0.14
C3A A16G C18A G36A G40A	0.45
C3A A16G C18A U20A A24C	0.1
C3A A16G G36A	0.21
C3A A16U A25U	0.09
C3A A16U G17C G36U C46U	0.14
C3A A16U G29C	0.21
C3A A16U G29U G40U	0.04
C3A A24C G29U C46A	0.15
C3A A24C G40C	0.15
C3A A24U G27C	0.12
C3A A25C A26C C45U C46A	0.44
C3A A25C C37A A41G	0.05
C3A A25C G30A U38G U43A	0.51
C3A A25C U28A U34A	0.12
C3A A25G G44A	0.46
C3A A26C C37A	0.43
C3A A26C G33C C42G	0.07
C3A A26G G36U C42U	0.14
C3A A41C G44U	0.05
C3A A41C U43G	0.18
C3A C8A A11C C13G G30C	0.03
C3A C8A C15A U34C C42U G44C	0.23

Variant	self-cleavage
C3A C8A C45A	1.41
C3A C8A G17U G21U	0.32
C3A C8A G30A U38C	0.91
C3A C8A U38C	0.31
C3A C8G A11C G21A G29A C46G	0.02
C3A C8G G40U A41C	0.11
C3A C8U A11U A12U C15G A16C G36U	0.04
C3A C8U A14G G21A G44U	0.64
C3A C8U C10A A39C	0.03
C3A C8U C15A U34A	0.22
C3A C8U C31U G36A	0.52
C3A C10A A11C G17U G35A	0.01
C3A C10A A12U G17C C18U A26C G30U	0.03
C3A C10A C31U A39G G40A	0.06
C3A C10A U34C	0.05
C3A C10G C23G	0.02
C3A C10G G30A C46U	0.07
C3A C10G U43A	0.02
C3A C10U A14U C31U C45A	0.05
C3A C10U C15A U20G G29U U32A A41G C45A	0.03
C3A C10U G19U	0.14
C3A C10U G30A	0.68
C3A C13A G19U A26G C46A	0.07
C3A C13A U34A	0.11

Variant	self-cleavage
C3A C13G A14G G17U	0.26
C3A C13G A16G G44C	0.03
C3A C13G C15A C18A U43C	0.08
C3A C13G C15G C23U G44C	0.03
C3A C13G C37A	1.51
C3A C13G C37G	0.07
C3A C13U A16G C18U G22A A25G C37A U38G	0.11
C3A C13U A16U G30U C31G	0.62
C3A C13U G21U	2.61
C3A C15A A24U U32A C37G	0.09
C3A C15A G21U	0.31
C3A C15A G22A C46G	0.16
C3A C15A G22C G40U	0.13
C3A C15A G33U	0.12
C3A C15G C18U C31A	0.1
C3A C15G G22A C23G C37G	0.01
C3A C15U A24U U32A	0.08
C3A C18A G22C A39G C46U	0.07
C3A C18A G27A	0.25
C3A C18A G27C U43G	0.06
C3A C18A G44A	0.53
C3A C18G C31A	0.06
C3A C18G G19A A24U G29C	0.14
